The list shows a part of the results.
Tests used:
HSkMC = human skeletal muscle cells; assay: cytotoxicity call (relative viability < 0.9); conditions: 10 µM
HepG2 = assay: cytotoxicity call (relative viability < 0.9); conditions: 10 µM
S. aureus RN4220 = assay: growth inhibition call (relative growth <= 0.2); conditions: 50 µM

| SMILES | cytotoxicity call (HSkMC) | cytotoxicity call (HepG2) | growth inhibition call (S. aureus RN4220) |
| --- | --- | --- | --- |
| O=C(C[C@H]1CC[C@@H]2NC[C@H](O)COC[C@H]2O1)NCCN1CCCC1 | inactive | inactive | inactive |
| COc1ccc(S(=O)(=O)N2[C@@H]3CC[C@@H](C3)[C@H]2c2nc3cccc(OCc4ccccc4)c3[nH]2)cc1OC | inactive | inactive | inactive |
| c1ccc(-n2ncc3c2ncn2nnnc32)cc1 | inactive | inactive | inactive |
| COc1ncnc(N)c1OC | inactive | inactive | inactive |
| C[C@H](CO)N1C[C@H](C)[C@@H](CN(C)C(=O)Nc2cccc3ccccc23)Oc2ccc(NC(=O)Nc3cccc4ccccc34)cc2CC1=O | active | inactive | inactive |
| Cn1cnc(S(=O)(=O)N[C@H]2C=C[C@H](CC(=O)N3CCN(c4ccccc4)CC3)O[C@@H]2CO)c1 | inactive | inactive | inactive |
| COc1ccc(C#Cc2ccc([C@@H]3[C@H](CO)N4CCCCN(S(=O)(=O)c5cn(C)cn5)C[C@@H]34)cc2)cc1 | inactive | active | inactive |
| O=c1nc(Nc2ccccc2)[nH]c(=O)[nH]1 | inactive | inactive | inactive |
| Cl.Clc1ccccc1CN1CCc2sccc2C1 | inactive | inactive | inactive |
| COCC#Cc1cnc2c(c1)C(=O)N([C@H](C)CO)C[C@@H](C)[C@@H](CN(C)C(=O)Nc1cc(F)ccc1F)O2 | inactive | inactive | inactive |
| O=C([O-])CCC(=O)OCC(NC(=O)C(Cl)Cl)C(O)c1ccc([N+](=O)[O-])cc1.[Na+] (stereo not drawn) | inactive | active | inactive |
| C[C@@H]1CCCCO[C@H](CN(C)C(=O)Nc2ccc3c(c2)OCO3)[C@@H](C)CN([C@H](C)CO)C(=O)c2cc(NC(=O)NC3CCCCC3)ccc2O1 | inactive | inactive | inactive |
| COc1ccc(NC(=O)Nc2cccc3c2O[C@H](CN(C)S(=O)(=O)c2cn(C)cn2)[C@H](C)CN([C@H](C)CO)C3=O)cc1 | inactive | inactive | inactive |
| C[C@@H]1CCCCO[C@@H](CN(C)Cc2ccc(C(F)(F)F)cc2)[C@@H](C)CN([C@H](C)CO)C(=O)c2cc(NC(=O)Nc3cccc4ccccc34)ccc2O1 | inactive | inactive | inactive |
| COc1ccc(NC(=O)Nc2ccc3c(c2)CC(=O)N([C@@H](C)CO)C[C@@H](C)[C@@H](CN(C)S(=O)(=O)c2cn(C)cn2)O3)cc1 | inactive | inactive | inactive |
| C[C@@H]1CN([C@@H](C)CO)C(=O)c2cc(NC(=O)Nc3ccc(C(F)(F)F)cc3)ccc2O[C@@H](C)CCCCO[C@H]1CN(C)S(=O)(=O)c1ccc(Cl)cc1 | inactive | inactive | inactive |
| CSCC[C@H](NC(=O)[C@H](Cc1ccc(OS(=O)(=O)O)cc1)NC(=O)[C@@H](N)CC(=O)O)C(=O)NCC(=O)N[C@@H](Cc1c[nH]c2ccccc12)C(=O)N[C@@H](CCSC)C(=O)N[C@@H](CC(=O)O)C(=O)N[C@@H](Cc1ccccc1)C(N)=O | active | active | inactive |
| COc1ccc2c3c(n(c2c1)C)[C@@H](CO)N(C[C@]13CCN(CC1)S(=O)(=O)c1ccccc1)C(=O)c1cccnc1 | inactive | inactive | inactive |
| CC(=O)OCC1=C(C(=O)[O-])N2C(=O)C(NC(=O)Cc3cccs3)C2SC1.[Na+] (stereo not drawn) | inactive | inactive | active |
| COc1ccc(NC(=O)Nc2ccc3c(c2)C(=O)N([C@H](C)CO)C[C@H](C)[C@H](CN(C)S(C)(=O)=O)O3)cc1 | inactive | inactive | inactive |
| Cc1ccc(S(=O)(=O)Nc2ccc3c(c2)CC(=O)N([C@@H](C)CO)C[C@@H](C)[C@H](CN(C)S(C)(=O)=O)O3)cc1 | inactive | inactive | inactive |
| CCN(CC)CCCCNc1ncc2cc(-c3cc(OC)cc(OC)c3)c(NC(=O)NC(C)(C)C)nc2n1 | active | active | inactive |
| CC(C)(C)[S@](=O)N1Cc2cc(C(=O)NCc3ccccc3F)nc(-c3cccc(-c4cccnc4)c3)c2[C@@H]1CCO | inactive | inactive | inactive |
| Cc1ccc(S(=O)(=O)Nc2ccc3c(c2)CC(=O)N([C@@H](C)CO)C[C@@H](C)[C@@H](CN(C)Cc2ccc(Cl)c(Cl)c2)O3)cc1 | active | active | inactive |
| C[C@H](CO)N1C[C@H](C)[C@H](CN(C)S(=O)(=O)c2cccs2)Oc2ccc(NC(=O)CCN3CCOCC3)cc2CC1=O | inactive | inactive | inactive |
| COC(=O)CN1C(=O)CSc2ncccc21 | inactive | inactive | inactive |

Reference: the antibiotic and cytotoxicity screens of Wong et al. (2023)
